What all share (test): co-IP; endogenous proteins in HeLa cell lysates (50 mM Tris, 150 mM NaCl, 0.1% NP40); antibody to one partner or control rabbit IgG, protein A and protein G beads, 4 °C; western blot
Background: A western blot detects proteins with antibodies after separation by electrophoresis.

The chains behind the UniProt entries cited, without tags or fusion partners.
UniProt O94986: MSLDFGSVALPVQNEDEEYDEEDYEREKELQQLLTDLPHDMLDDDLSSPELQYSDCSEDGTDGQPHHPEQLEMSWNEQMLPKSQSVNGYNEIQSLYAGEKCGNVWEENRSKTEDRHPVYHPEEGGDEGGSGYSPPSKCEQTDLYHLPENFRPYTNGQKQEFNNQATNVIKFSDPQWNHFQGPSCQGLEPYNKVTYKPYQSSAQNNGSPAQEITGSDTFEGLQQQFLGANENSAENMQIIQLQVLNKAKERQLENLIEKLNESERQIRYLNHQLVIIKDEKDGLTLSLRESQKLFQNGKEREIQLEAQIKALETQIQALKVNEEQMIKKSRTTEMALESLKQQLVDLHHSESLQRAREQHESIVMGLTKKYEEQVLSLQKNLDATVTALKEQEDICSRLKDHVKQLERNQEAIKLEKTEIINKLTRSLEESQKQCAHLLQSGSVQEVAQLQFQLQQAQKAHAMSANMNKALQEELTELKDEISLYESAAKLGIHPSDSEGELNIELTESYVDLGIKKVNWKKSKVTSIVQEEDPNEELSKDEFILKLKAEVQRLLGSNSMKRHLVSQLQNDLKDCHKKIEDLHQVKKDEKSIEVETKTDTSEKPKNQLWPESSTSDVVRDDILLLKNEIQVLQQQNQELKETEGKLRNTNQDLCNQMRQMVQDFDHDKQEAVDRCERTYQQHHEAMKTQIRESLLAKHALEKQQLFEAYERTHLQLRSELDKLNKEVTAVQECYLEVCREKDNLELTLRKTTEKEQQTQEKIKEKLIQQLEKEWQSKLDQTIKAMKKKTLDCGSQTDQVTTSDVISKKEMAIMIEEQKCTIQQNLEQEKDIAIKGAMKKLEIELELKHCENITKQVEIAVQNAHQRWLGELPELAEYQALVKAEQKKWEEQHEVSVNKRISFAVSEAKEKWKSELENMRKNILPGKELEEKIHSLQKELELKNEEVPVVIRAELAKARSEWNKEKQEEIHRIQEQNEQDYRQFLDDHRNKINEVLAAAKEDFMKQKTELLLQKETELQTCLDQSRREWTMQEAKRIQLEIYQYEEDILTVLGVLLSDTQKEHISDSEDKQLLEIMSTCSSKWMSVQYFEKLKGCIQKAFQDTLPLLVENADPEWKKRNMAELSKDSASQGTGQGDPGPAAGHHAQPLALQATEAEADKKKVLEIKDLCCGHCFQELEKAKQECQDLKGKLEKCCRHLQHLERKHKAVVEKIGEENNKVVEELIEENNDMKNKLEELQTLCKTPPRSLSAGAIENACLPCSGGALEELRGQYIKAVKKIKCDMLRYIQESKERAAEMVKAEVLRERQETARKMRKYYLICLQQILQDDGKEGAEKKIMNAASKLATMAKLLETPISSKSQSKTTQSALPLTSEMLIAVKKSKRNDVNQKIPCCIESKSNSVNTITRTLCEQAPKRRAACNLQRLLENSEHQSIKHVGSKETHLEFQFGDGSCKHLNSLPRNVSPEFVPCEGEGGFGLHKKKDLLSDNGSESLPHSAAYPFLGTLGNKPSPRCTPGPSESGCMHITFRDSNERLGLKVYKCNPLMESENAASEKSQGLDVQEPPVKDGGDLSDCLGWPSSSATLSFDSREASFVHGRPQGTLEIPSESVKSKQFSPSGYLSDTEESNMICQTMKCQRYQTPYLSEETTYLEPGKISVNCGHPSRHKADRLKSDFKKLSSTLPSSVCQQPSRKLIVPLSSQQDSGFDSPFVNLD
UniProt Q15154: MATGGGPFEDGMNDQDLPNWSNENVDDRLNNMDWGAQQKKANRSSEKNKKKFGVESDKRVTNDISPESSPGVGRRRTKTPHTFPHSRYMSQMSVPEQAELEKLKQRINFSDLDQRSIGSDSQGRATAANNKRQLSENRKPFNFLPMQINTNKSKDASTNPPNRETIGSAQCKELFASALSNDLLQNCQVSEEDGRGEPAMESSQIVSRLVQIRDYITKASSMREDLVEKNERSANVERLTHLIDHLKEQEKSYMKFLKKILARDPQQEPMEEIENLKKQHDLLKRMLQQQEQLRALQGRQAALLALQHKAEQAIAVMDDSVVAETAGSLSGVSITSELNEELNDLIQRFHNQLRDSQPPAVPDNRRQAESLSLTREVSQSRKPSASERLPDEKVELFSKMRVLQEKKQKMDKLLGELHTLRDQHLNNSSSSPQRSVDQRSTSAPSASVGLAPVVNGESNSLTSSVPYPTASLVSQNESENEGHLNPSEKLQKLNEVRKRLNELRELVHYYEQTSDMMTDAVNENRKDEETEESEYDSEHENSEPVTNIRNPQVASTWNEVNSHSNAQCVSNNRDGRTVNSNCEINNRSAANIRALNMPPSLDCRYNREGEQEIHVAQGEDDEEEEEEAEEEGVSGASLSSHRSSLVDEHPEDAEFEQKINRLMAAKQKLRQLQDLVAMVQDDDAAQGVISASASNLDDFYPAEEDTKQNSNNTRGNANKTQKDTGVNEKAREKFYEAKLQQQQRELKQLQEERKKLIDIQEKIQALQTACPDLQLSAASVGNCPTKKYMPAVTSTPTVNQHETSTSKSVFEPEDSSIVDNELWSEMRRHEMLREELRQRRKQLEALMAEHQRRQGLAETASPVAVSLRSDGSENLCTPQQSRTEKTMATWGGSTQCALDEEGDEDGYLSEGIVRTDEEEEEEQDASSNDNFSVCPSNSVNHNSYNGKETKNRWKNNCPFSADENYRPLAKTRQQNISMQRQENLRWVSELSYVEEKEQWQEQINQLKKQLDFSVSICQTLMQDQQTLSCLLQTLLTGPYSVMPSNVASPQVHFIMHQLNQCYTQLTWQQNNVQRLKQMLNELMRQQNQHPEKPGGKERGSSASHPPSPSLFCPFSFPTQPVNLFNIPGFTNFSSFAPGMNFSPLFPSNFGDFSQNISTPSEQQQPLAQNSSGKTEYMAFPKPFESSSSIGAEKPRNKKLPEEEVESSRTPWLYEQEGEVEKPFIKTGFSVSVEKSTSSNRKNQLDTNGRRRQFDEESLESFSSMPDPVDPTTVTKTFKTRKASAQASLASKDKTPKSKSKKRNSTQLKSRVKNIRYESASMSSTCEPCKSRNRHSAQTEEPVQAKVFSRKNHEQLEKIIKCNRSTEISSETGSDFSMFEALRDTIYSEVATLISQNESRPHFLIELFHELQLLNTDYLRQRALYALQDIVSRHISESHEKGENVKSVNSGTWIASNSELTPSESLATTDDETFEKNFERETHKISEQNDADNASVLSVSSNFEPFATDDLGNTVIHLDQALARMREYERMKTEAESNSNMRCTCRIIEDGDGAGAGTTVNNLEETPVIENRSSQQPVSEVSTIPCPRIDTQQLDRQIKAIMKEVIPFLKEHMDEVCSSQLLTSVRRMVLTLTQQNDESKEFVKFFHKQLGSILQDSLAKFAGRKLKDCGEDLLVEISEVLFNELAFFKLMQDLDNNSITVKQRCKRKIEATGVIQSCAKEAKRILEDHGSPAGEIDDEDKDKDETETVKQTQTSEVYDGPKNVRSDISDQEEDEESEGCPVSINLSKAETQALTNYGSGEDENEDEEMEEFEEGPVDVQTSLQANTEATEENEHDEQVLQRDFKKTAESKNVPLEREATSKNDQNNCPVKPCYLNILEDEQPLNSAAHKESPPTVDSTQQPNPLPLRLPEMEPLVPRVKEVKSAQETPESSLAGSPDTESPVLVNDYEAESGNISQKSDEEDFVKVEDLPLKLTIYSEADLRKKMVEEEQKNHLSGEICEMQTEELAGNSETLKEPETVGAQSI

Experiment [1] addresses T1, Coiled-coil alpha-helical rod protein 1 (HCR), endogenous in HeLa (human (endogenous in HeLa)) (UniProt Q8TD31).
T1 sequence: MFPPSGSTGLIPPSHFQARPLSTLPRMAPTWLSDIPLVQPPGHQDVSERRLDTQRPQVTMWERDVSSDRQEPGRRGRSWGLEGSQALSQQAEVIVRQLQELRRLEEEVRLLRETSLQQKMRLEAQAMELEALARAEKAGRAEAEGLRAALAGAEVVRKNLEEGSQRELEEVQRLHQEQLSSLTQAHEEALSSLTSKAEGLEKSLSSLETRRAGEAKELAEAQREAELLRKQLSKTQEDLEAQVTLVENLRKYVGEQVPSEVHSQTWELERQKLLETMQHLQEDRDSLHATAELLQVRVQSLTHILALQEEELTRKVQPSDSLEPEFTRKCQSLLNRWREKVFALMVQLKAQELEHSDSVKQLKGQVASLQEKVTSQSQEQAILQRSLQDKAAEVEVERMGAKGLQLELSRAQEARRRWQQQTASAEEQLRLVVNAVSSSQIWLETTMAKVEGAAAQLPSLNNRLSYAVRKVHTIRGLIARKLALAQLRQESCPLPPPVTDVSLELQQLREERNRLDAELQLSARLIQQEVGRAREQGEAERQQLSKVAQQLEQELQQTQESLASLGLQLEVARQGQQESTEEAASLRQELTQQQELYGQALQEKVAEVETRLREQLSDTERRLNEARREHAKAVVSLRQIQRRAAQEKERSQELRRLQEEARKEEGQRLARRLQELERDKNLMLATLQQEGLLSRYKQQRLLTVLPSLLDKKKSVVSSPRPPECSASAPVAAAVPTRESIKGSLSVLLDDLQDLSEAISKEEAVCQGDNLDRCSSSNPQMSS

Experiment [2] concerns the target T2, astrin (sperm-associated antigen 5), endogenous in HeLa (human (endogenous in HeLa)) (UniProt Q96R06).
T2 sequence: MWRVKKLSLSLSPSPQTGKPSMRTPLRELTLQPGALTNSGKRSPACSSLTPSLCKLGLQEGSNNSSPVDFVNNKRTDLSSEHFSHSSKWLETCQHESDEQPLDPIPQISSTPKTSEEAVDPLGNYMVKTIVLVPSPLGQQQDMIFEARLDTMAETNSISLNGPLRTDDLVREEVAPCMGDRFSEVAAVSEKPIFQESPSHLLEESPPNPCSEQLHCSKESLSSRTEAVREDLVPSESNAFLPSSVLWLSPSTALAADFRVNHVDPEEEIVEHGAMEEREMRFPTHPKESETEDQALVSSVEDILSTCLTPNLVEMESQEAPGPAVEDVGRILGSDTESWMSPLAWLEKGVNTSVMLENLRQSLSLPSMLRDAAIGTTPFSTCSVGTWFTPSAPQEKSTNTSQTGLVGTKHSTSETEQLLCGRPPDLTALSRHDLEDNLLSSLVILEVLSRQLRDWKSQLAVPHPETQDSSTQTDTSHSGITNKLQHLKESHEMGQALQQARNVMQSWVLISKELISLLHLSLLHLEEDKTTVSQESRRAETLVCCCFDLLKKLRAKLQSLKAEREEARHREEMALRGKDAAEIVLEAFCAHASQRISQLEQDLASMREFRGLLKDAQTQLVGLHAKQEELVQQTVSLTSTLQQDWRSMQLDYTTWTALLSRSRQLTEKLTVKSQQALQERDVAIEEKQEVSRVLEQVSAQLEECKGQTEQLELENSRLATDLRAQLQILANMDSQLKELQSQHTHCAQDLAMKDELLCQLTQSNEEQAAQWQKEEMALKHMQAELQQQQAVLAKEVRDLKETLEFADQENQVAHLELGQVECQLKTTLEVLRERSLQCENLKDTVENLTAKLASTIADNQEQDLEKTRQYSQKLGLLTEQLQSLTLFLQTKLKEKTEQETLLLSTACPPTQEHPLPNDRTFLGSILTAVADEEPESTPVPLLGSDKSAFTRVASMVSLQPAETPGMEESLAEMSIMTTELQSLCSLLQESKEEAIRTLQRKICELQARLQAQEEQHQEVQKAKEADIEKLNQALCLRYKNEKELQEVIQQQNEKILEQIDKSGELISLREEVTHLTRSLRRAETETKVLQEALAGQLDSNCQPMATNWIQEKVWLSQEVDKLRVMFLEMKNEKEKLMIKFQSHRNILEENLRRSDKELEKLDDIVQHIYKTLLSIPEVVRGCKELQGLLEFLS

Experiment [3] concerns the target T1, Coiled-coil alpha-helical rod protein 1 (HCR), endogenous in HeLa (human (endogenous in HeLa)). The source holds these as a separate data set.

Like-named read-outs stand apart in the source and are kept apart here. Results are given in words; binding and its absence hold for the method and conditions named. Binding seen in cells or lysates may run through a third protein. Some entries that bind do so weakly or less than the wild type. For some assays here: Sequences can lack the tags named with a protein.

On to “CEP152, endogenous in HeLa (from UniProt O94986 1-1710)”, for which, in experiment [1], the binding entry was “no binding”.

Regarding “pericentriolar material 1 (PCM1), endogenous in HeLa (from UniProt Q15154 1-2024)”, the binding entry in experiment [1] and in experiment [2] was “binds” in each case.

B1: astrin (sperm-associated antigen 5), endogenous in HeLa (protein, UniProt Q96R06 1-1193)
chain: MWRVKKLSLSLSPSPQTGKPSMRTPLRELTLQPGALTNSGKRSPACSSLTPSLCKLGLQEGSNNSSPVDFVNNKRTDLSSEHFSHSSKWLETCQHESDEQPLDPIPQISSTPKTSEEAVDPLGNYMVKTIVLVPSPLGQQQDMIFEARLDTMAETNSISLNGPLRTDDLVREEVAPCMGDRFSEVAAVSEKPIFQESPSHLLEESPPNPCSEQLHCSKESLSSRTEAVREDLVPSESNAFLPSSVLWLSPSTALAADFRVNHVDPEEEIVEHGAMEEREMRFPTHPKESETEDQALVSSVEDILSTCLTPNLVEMESQEAPGPAVEDVGRILGSDTESWMSPLAWLEKGVNTSVMLENLRQSLSLPSMLRDAAIGTTPFSTCSVGTWFTPSAPQEKSTNTSQTGLVGTKHSTSETEQLLCGRPPDLTALSRHDLEDNLLSSLVILEVLSRQLRDWKSQLAVPHPETQDSSTQTDTSHSGITNKLQHLKESHEMGQALQQARNVMQSWVLISKELISLLHLSLLHLEEDKTTVSQESRRAETLVCCCFDLLKKLRAKLQSLKAEREEARHREEMALRGKDAAEIVLEAFCAHASQRISQLEQDLASMREFRGLLKDAQTQLVGLHAKQEELVQQTVSLTSTLQQDWRSMQLDYTTWTALLSRSRQLTEKLTVKSQQALQERDVAIEEKQEVSRVLEQVSAQLEECKGQTEQLELENSRLATDLRAQLQILANMDSQLKELQSQHTHCAQDLAMKDELLCQLTQSNEEQAAQWQKEEMALKHMQAELQQQQAVLAKEVRDLKETLEFADQENQVAHLELGQVECQLKTTLEVLRERSLQCENLKDTVENLTAKLASTIADNQEQDLEKTRQYSQKLGLLTEQLQSLTLFLQTKLKEKTEQETLLLSTACPPTQEHPLPNDRTFLGSILTAVADEEPESTPVPLLGSDKSAFTRVASMVSLQPAETPGMEESLAEMSIMTTELQSLCSLLQESKEEAIRTLQRKICELQARLQAQEEQHQEVQKAKEADIEKLNQALCLRYKNEKELQEVIQQQNEKILEQIDKSGELISLREEVTHLTRSLRRAETETKVLQEALAGQLDSNCQPMATNWIQEKVWLSQEVDKLRVMFLEMKNEKEKLMIKFQSHRNILEENLRRSDKELEKLDDIVQHIYKTLLSIPEVVRGCKELQGLLEFLS
Take B1: the binding entry in experiment [3] is “binds”.

B2: CEP131, endogenous in HeLa (protein, UniProt Q9UPN4 1-1083)
chain: MKGTRAIGSVPERSPAGVDLSLTGLPPPVSRRPGSAATTKPIVRSVSVVTGSEQKRKVLEATGPGGSQAINNLRRSNSTTQVSQPRSGSPRPTEPTDFLMLFEGSPSGKKRPASLSTAPSEKGATWNVLDDQPRGFTLPSNARSSSALDSPAGPRRKECTVALAPNFTANNRSNKGAVGNCVTTMVHNRYTPSERAPPLKSSNQTAPSLNNIIKAATCEGSESSGFGKLPKNVSSATHSARNNTGGSTGLPRRKEVTEEEAERFIHQVNQATVTIQRWYRHQVQRRGAGAARLEHLLQAKREEQRQRSGEGTLLDLHQQKEAARRKAREEKARQARRAAIQELQQKRALRAQKASTAERGPPENPRETRVPGMRQPAQELSPTPGGTAHQALKANNTGGGLPAAGPGDRCLPTSDSSPEPQQPPEDRTQDVLAQDAAGDNLEMMAPSRGSAKSRGPLEELLHTLQLLEKEPDVLPRPRTHHRGRYAWASEVTTEDDASSLTADNLEKFGKLSAFPEPPEDGTLLSEAKLQSIMSFLDEMEKSGQDQLDSQQEGWVPEAGPGPLELGSEVSTSVMRLKLEVEEKKQAMLLLQRALAQQRDLTARRVKETEKALSRQLQRQREHYEATIQRHLAFIDQLIEDKKVLSEKCEAVVAELKQEDQRCTERVAQAQAQHELEIKKLKELMSATEKARREKWISEKTKKIKEVTVRGLEPEIQKLIARHKQEVRRLKSLHEAELLQSDERASQRCLRQAEELREQLEREKEALGQQERERARQRFQQHLEQEQWALQQQRQRLYSEVAEERERLGQQAARQRAELEELRQQLEESSSALTRALRAEFEKGREEQERRHQMELNTLKQQLELERQAWEAGRTRKEEAWLLNREQELREEIRKGRDKEIELVIHRLEADMALAKEESEKAAESRIKRLRDKYEAELSELEQSERKLQERCSELKGQLGEAEGENLRLQGLVRQKERALEDAQAVNEQLSSERSNLAQVIRQEFEDRLAASEEETRQAKAELATLQARQQLELEEVHRRVKTALARKEEAVSSLRTQHEAAVKRADHLEELLEQHRRPTPSTK
For the molecule B2, the binding entry in experiment [3] was “binds”.

B3: CEP63, endogenous in HeLa (protein, UniProt Q96MT8 1-703)
chain: MEALLEGIQNRGHGGGFLTSCEAELQELMKQIDIMVAHKKSEWEGRTHALETCLKIREQELKSLRSQLDVTHKEVGMLHQQVEEHEKIKQEMTMEYKQELKKLHEELCILKRSYEKLQKKQMREFRGNTKNHREDRSEIERLTAKIEEFRQKSLDWEKQRLIYQQQVSSLEAQRKALAEQSEIIQAQLVNRKQKLESVELSSQSEIQHLSSKLERANDTICANELEIERLTMRVNDLVGTSMTVLQEQQQKEEKLRESEKLLEALQEEKRELKAALQSQENLIHEARIQKEKLQEKVKATNTQHAVEAIRPREESLAEKKYTSQGQGDLDSVLSQLNFTHTSEDLLQAEVTCLEGSLESVSATCKQLSQELMEKYEELKRMEAHNNEYKAEIKKLKEQILQGEQSYSSALEGMKMEISHLTQELHQRDITIASTKGSSSDMEKRLRAEMQKAEDKAVEHKEILDQLESLKLENRHLSEMVMKLELGLHEAKEISLADLQENYIEALNKLVSENQQLQKDLMNTKSQLEISTQMCKKQNDRIFKPTHSRTTEFKNTEFKPTHGQHRHDGIKTEHYKTDLHSPRGQASDSINPMSRVLSPLSPQISPCSSTRSLTSYSLCKTHSLPSALDTNEANFSDTMSESMNDQEEFISSCSLPVSPLGSIATRFLEEEELRSHHILERLDAHIEELKRESEKTVRQFTALK
On to B3, for which, in experiment [3], the binding result was “no binding”.

B4: small kinetochore-associated protein (SKAP), endogenous in HeLa (protein, UniProt Q9Y448 1-316)
chain: MAAPEAPPLDRVFRTTWLSTECDSHPLPPSYRKFLFETQAADLAGGTTVAAGNLLNESEKDCGQDRRAPGVQPCRLVTMTSVVKTVYSLQPPSALSGGQPADTQTRATSKSLLPVRSKEVDVSKQLHSGGPENDVTKITKLRRENGQMKATDTATRRNVRKGYKPLSKQKSEEELKDKNQLLEAVNKQLHQKLTETQGELKDLTQKVELLEKFRDNCLAILESKGLDPALGSETLASRQESTTDHMDSMLLLETLQEELKLFNETAKKQMEELQALKVKLEMKEERVRFLEQQTLCNNQVNDLTTALKEMEQLLEM
Take B4: in experiment [3], the binding result is “no binding”.

B5: Myc-binding protein (MYCBP), endogenous in HeLa (protein, UniProt Q99417 1-103)
chain: MAHYKAADSKREQFRRYLEKSGVLDTLTKVLVALYEEPEKPNSALDFLKHHLGAATPENPEIELLRLELAEMKEKYEAIVEENKKLKAKLAQYEPPQEEKRAE
For the molecule B5, in experiment [3], the binding entry was “no binding”.

The values are drawn from article PMC9590400.
